Test results: article PMC9880023
Where two headings read alike, the source gives them in different places. These are yes or no findings as the source states them, for the method shown. Some binding calls cover weakened binding; strength is not graded here. For part of these data: Where a sequence is shown, tags or fusion partners need not be part of it.

Sequences of proteins named here, by UniProt entry; tags and fusion partners are left off. Residues count along the entry.
UniProt P0DI97, residues 47-468: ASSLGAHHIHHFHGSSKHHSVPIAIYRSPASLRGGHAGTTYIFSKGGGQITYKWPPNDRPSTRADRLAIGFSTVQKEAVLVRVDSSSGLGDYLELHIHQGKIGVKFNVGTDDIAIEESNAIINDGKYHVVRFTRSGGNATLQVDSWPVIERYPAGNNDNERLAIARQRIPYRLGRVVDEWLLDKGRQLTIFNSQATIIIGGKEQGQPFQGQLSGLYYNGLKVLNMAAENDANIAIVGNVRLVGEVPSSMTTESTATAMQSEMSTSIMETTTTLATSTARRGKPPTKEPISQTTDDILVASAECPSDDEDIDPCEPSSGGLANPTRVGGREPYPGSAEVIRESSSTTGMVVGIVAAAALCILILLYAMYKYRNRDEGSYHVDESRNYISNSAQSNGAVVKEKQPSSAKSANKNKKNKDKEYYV
UniProt E9PUN2, residues 47-660: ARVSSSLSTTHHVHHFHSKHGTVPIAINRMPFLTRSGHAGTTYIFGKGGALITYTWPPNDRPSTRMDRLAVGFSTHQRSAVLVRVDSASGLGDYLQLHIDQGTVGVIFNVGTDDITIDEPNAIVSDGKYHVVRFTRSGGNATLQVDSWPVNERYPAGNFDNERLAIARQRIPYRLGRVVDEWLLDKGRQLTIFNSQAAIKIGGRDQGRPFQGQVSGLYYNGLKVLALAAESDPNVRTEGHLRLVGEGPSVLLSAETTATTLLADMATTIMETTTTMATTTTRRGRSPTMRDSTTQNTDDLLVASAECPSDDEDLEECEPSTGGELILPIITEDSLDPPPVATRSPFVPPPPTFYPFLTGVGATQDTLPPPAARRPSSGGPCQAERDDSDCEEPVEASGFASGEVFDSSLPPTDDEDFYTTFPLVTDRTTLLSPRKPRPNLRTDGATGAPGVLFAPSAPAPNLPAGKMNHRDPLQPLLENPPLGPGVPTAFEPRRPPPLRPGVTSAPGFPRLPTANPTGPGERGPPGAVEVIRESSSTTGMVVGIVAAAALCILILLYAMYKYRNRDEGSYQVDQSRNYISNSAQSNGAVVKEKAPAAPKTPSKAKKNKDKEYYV
UniProt Q8C985, residues 36-567: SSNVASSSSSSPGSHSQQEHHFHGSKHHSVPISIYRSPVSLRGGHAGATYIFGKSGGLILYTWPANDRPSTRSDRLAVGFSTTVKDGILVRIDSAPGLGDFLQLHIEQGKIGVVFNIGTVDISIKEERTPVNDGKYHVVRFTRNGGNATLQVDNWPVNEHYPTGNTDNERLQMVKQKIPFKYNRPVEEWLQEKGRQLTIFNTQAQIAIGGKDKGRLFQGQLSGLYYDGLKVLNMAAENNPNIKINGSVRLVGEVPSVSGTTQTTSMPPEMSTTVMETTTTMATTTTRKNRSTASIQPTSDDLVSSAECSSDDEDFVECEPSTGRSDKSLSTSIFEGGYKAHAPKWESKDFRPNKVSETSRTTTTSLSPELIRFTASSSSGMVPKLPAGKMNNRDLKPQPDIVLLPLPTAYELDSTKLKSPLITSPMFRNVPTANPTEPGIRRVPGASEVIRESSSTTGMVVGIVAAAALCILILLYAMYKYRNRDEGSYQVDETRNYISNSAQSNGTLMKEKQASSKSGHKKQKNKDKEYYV
UniProt Q9EPR5, residues 52-1077: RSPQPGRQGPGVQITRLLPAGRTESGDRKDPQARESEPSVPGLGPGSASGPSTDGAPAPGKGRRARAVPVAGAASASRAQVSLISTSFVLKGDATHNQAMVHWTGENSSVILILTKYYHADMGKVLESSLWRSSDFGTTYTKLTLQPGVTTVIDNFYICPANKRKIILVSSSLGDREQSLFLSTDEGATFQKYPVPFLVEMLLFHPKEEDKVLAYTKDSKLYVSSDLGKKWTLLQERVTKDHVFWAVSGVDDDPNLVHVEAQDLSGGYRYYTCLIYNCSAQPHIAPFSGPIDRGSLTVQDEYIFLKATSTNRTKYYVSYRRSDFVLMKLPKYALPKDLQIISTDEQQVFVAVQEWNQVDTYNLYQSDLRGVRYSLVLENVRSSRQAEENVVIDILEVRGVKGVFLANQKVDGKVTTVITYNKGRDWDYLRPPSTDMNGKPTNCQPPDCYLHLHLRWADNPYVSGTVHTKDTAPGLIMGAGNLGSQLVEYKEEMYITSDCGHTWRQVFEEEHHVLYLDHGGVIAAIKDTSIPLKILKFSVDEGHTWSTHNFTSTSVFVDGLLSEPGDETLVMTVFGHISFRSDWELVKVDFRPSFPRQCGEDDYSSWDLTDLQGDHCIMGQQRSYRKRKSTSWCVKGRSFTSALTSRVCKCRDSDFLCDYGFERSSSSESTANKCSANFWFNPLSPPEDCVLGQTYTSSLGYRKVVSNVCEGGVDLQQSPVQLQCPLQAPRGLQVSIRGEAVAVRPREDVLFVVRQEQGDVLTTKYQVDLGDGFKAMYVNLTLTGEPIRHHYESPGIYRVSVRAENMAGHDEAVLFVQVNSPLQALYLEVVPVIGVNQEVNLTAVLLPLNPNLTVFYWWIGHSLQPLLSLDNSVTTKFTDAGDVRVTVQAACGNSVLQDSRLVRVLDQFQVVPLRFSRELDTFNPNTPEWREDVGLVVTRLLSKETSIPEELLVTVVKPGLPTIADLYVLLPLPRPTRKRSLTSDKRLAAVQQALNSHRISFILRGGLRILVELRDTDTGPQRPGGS

B1: SorCS1 ectodomain tagged with human immunoglobulin Fc region (SorCS1-Fc) (Fc fusion, UniProt Q9JLC4 34-1098)
chain: SLSCCPPQHPSSTPRRTLTPRGFPHPGPLGRAPATPPPLFMRPLFAVAPGDRALFLERAGGSRVSVATAARSGRRRRSGTEPEKIEPGEGASRSRRDMLKDGGQQGLGTGARDPGKATRFRMEELRLTSTTFALTGDSAHNQAMVHWSGHNSSVILILTKLYDYNLGSITESSLWRSTDYGTTYEKLNDKVGLKTILSYLYVCPTNKCKIMLLTDPEIESSLLISSDEGATYQKYRLNFYLQSLLFHPKQEDWILAYSQDQKLYSSAEFGRRWQLIQESVVPNRFYWSVMGSSKEPDLVHLEARTVDGHSIYLTCRMQNCTEANRNKPFPGYIDPDSLIVQDDYVFVQLTSGGRPHYYVSYRRSPFAQMKLPKYALPKDMHVISTDENQVFAAVQEWNQNDTYNLYISDTRGVYFTLALENVRSSRGPEGNVMIDLYEVAGIKGMFLANKKIDNQVKTFITYNKGRDWRLLQAPDADLRGDPVHCLLPYCSLHLHLKVSENPYTSGIIASRDTAPSIIVASGNIGSELSDSDISMFVSSDAGNTWRQIFEEEHSILYLDQGGVLVAMKHTSLPIRHLWLSFDEGRSWSKYSFTSIPLFVDGVLGEPGEETLIMTVFGHFSHRSEWQLVKVDYKSIFDRRCAEEDYRPWQLHSQGEACIMGAKRIYKKRKSERKCMQKYAGAMESEPCVCTEADFDCDYGYERHSNGQCLPAFWFNPSSLSKDCSLGQSYLNSAGYRKVVSNNCTDGVREQYTAKPQKCPGKAPRGLRIVTADGKLTAEQGHNVTLMVQLEEGDVQRTLIQVDFGDGIAVSYVNLSSMEDGIKHVYQNVGIFRVTVQVDNSLGSDSAVLYLHVTCPLEHVHLSLPFVTTKNKEVNATAVLWPSQVGTLTYVWWYGNNTEPLITLEGSISFKFTSEGMNTITVQVSAGNAILQDTKTIAVYEEFRSLRLAFSPNLDDYNPDIPEWRRDISRVIKKSLVEATGIPSQHILVAVLPGLPTAAELFVLPYQDGTRENKRSPEDLEQISEVLIHKLNQNLVHFELKPGVQVLVHAAHLTAAPLVDLTPTHS

Tests used:
Experiment in all cases: cell surface-binding assay (fluorescence microscopy); purified Fc-fusion protein (SorCS1-Fc and SorCS2-Fc at 1 µM) applied to transfected COS-7 cells in ECS/BSA for 1 h at 4°C; bound Fc immunostained without permeabilisation, normalised to surface HA; only the binder purified
[1] = target: HA-NRX1βS4(+), expressed on COS-7 cells (UniProt P0DI97)
[2] = target: HA-NRX2βS4(+), expressed on COS-7 cells (UniProt E9PUN2)
[3] = target: HA-NRX3βS4(+), expressed on COS-7 cells (UniProt Q8C985)
[4] = target: HA-NRX1βS4(+), expressed on COS-7 cells (UniProt P0DI97); remark: listed apart in the source
[5] = target: HA-NRX2βS4(+), expressed on COS-7 cells (UniProt E9PUN2); remark: listed apart in the source
[6] = target: HA-NRX3βS4(+), expressed on COS-7 cells (UniProt Q8C985); remark: listed apart in the source

Row | binding [1] | binding [2] | binding [3] | binding [4] | binding [5] | binding [6] | Molecule
1 | binds | binds weakly | binds weakly |  |  |  | SorCS2 ectodomain fused to human IgG Fc (SorCS2-Fc) (from UniProt Q9EPR5 52-1077) (Fc fusion)
2 |  |  |  | binds | binds | no binding (tested: 1 µM) | B1
